# PubChem BioAssay (NCATS)
# The shares of active, inactive and inconclusive entries below differ from those in the screen. A potency beside an inconclusive call is a rough fit, not a confirmed value. Calls of active or inactive are those of the source. The call rests on the fitted dose curve; in most records, active means well fitted curve in the direction sought with a large enough effect; inconclusive means small, poorly fitted or top-dose-only effect, or another doubt; inactive means no such curve, though single readings can be large; an effect the other way counts as inactive or inconclusive.
# Assay: qHTS of pediatric cancer cell lines to identify multiple opportunities for drug repurposing: Primary screen for BT-37 cells (AID 1347094);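 on activity change, negative = cytotoxic: plate controls were DMSO for no effect and bortezomib for full effect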
# Details: BT-37 viability, CellTiter-Glo luminescence, 48 h; series mostly up to 57.3 µM; activity change, negative = cytotoxic: at the top concentration
# Method in brief: (§1)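 500-1,000 cells/well; 5 h pre-incubation 37 °C/5% CO2; compound pinned; 48 h; CellTiter-Glo, 15 min RT; luminescence. MIPE 11-pt from 0.78 nM, NPC 8-pt from 0.59 nM final. Bortezomib 2.3 µM final as positive control.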
# Potency means the concentration at half of the fitted maximal effect; tags describe the fitted curve by direction and shape.
Compound,Potency,"activity change, negative = cytotoxic"
C[C@@H](O[C@H]1OCCN(Cc2n[nH]c(=O)[nH]2)[C@H]1c1ccc(F)cc1)c1cc(C(F)(F)F)cc(C(F)(F)F)c1,active: 21.9 µM,
CCN(CC)CCCCNc1ncc2c(n1)N(C)C(=O)N(c1c(Cl)c(OC)cc(OC)c1Cl)C2,"inconclusive: 19.3 µM [cytotoxic, partial curve]",
COc1ccc(Cc2cnc(N)nc2N)cc1OC,,inactive: 16.2%
CCN(CC)CCOc1ccc2c(c1)C(=O)c1cc(OCCN(CC)CC)ccc1-2,"inconclusive: 27.6 µM [cytotoxic, single point]",
CN1CCc2cccc3c2[C@H]1Cc1ccc(O)c(O)c1-3,"inconclusive: 21.9 µM [cytotoxic, single point]",

# Assay: qHTS of pediatric cancer cell lines to identify multiple opportunities for drug repurposing: Primary screen for NB-EBc1 cells (AID 1347095)
# Details: NB-EBc1 neuroblastoma viability, CellTiter-Glo luminescence, 48 h; series mostly up to 46 µM; activity change, negative = cytotoxic: at the top concentration
# Method in brief: as §1
row,Compound,Potency
1,C[C@@H](O[C@H]1OCCN(Cc2n[nH]c(=O)[nH]2)[C@H]1c1ccc(F)cc1)c1cc(C(F)(F)F)cc(C(F)(F)F)c1,active: 18.8 µM
2,C(=C\c1ccccc1)/CN1CCN(C(c2ccccc2)c2ccccc2)CC1,"inconclusive: 26.6 µM [cytotoxic, single point]"
3,CCN(CC)CCCCNc1ncc2c(n1)N(C)C(=O)N(c1c(Cl)c(OC)cc(OC)c1Cl)C2,"inconclusive: 18.7 µM [cytotoxic, partial curve]"
4,CCN(CC)CCOc1ccc2c(c1)C(=O)c1cc(OCCN(CC)CC)ccc1-2,"inconclusive: 29.9 µM [cytotoxic, single point]"
5,CN1CCc2cccc3c2[C@H]1Cc1ccc(O)c(O)c1-3,"inconclusive: 21.1 µM [cytotoxic, single point]"

# Assay: qHTS of pediatric cancer cell lines to identify multiple opportunities for drug repurposing: Primary screen for Saos-2 cells (AID 1347097); further: nearly all actives have a fitted effect of over 40% in size
# Details: Saos-2 viability, CellTiter-Glo ATP luminescence, 48 h; activity change, negative = cytotoxic: at 46 µM (top of the series)
# Method in brief: as §1
row,Compound,Potency
1,C[C@@H](O[C@H]1OCCN(Cc2n[nH]c(=O)[nH]2)[C@H]1c1ccc(F)cc1)c1cc(C(F)(F)F)cc(C(F)(F)F)c1,active: 11.9 µM
2,C(=C\c1ccccc1)/CN1CCN(C(c2ccccc2)c2ccccc2)CC1,"inconclusive: 23.7 µM [cytotoxic, single point]"
3,CN1CCc2cccc3c2[C@H]1Cc1ccc(O)c(O)c1-3,active: 21.1 µM

# Assay: qHTS of pediatric cancer cell lines to identify multiple opportunities for drug repurposing: Primary screen for SK-N-SH cells (AID 1347098); further: nearly all actives have a fitted effect of over 65% in size;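 on activity change, negative = cytotoxic: DMSO served as neutral control and bortezomib at 2.3 µM as positive control; on the % scale 0 is the no-effect control and ±100 the full control effect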
# Details: SK-N-SH viability, CellTiter-Glo luminescence, 48 h; activity change, negative = cytotoxic: at 57 µM (top of the series)
# Method in brief: (§2)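 Cells (500-1,000/well) rested 5 h, then received compounds for 48 h; metabolically active cells were measured by CellTiter-Glo luminescence. Final concentrations spanned up to 46 µM (MIPE, 11-point) or 0.59 nM-46 µM (NPC, 8-point) in primary screens, 11-point in follow-ups.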
Compound,"activity change, negative = cytotoxic",Potency
C(=C\c1ccccc1)/CN1CCN(C(c2ccccc2)c2ccccc2)CC1,inactive: -19.8%,
CN1CCc2cccc3c2[C@H]1Cc1ccc(O)c(O)c1-3,,"inconclusive: 38.6 µM [cytotoxic, single point]"
Cc1ccc(Nc2c(F)cccc2Cl)c(CC(=O)O)c1,inactive: -3.7%,

# Assay: qHTS of pediatric cancer cell lines to identify multiple opportunities for drug repurposing: Primary screen for NB1643 cells (AID 1347099); further: nearly all actives have a fitted effect of over 50% in size;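 on activity change, negative = cytotoxic: plate controls were DMSO neutral control for no effect and bortezomib positive control for full effect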
# Details: NB1643 neuroblastoma viability, CellTiter-Glo luminescence, 48 h; series mostly up to 46 µM; activity change, negative = cytotoxic: at the top concentration
# Method in brief: as §1
Compound,Potency,"activity change, negative = cytotoxic"
C[C@@H](O[C@H]1OCCN(Cc2n[nH]c(=O)[nH]2)[C@H]1c1ccc(F)cc1)c1cc(C(F)(F)F)cc(C(F)(F)F)c1,"inconclusive: 26.6 µM [cytotoxic, single point]",
CCN(CC)CCCCNc1ncc2c(n1)N(C)C(=O)N(c1c(Cl)c(OC)cc(OC)c1Cl)C2,active: 16.6 µM,
COc1ccc(Cc2cnc(N)nc2N)cc1OC,,inactive: 14.7%
CCN(CC)CCOc1ccc2c(c1)C(=O)c1cc(OCCN(CC)CC)ccc1-2,"inconclusive: 26.6 µM [cytotoxic, single point]",
CN1CCc2cccc3c2[C@H]1Cc1ccc(O)c(O)c1-3,"inconclusive: 23.7 µM [cytotoxic, partial curve]",

# Assay: qHTS of pediatric cancer cell lines to identify multiple opportunities for drug repurposing: Primary screen for LAN-5 cells (AID 1347100)
# Details: LAN-5 neuroblastoma viability, CellTiter-Glo luminescence, 48 h; series mostly up to 46 µM; activity change, negative = cytotoxic: at the top concentration
# Method in brief: as §2
row,Compound,Potency
1,C[C@@H](O[C@H]1OCCN(Cc2n[nH]c(=O)[nH]2)[C@H]1c1ccc(F)cc1)c1cc(C(F)(F)F)cc(C(F)(F)F)c1,"inconclusive: 29.9 µM [cytotoxic, single point]"
2,CCN(CC)CCCCNc1ncc2c(n1)N(C)C(=O)N(c1c(Cl)c(OC)cc(OC)c1Cl)C2,active: 20.9 µM
3,CCN(CC)CCOc1ccc2c(c1)C(=O)c1cc(OCCN(CC)CC)ccc1-2,active: 23.7 µM

# Assay: qHTS of pediatric cancer cell lines to identify multiple opportunities for drug repurposing: Primary screen for BT-12 cells (AID 1347101); further: nearly all actives have a fitted effect of over 25% in size;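 on activity change, negative = cytotoxic: plate controls were DMSO for no effect and bortezomib positive control for full effect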
# Details: BT-12 viability, CellTiter-Glo luminescence, 48 h; series mostly up to 57.3 µM; activity change, negative = cytotoxic: at the top concentration
# Method in brief: as §2
Compound,"activity change, negative = cytotoxic",Potency
C(=C\c1ccccc1)/CN1CCN(C(c2ccccc2)c2ccccc2)CC1,inactive: -19.8%,
CCN(CC)CCOc1ccc2c(c1)C(=O)c1cc(OCCN(CC)CC)ccc1-2,,"inconclusive: 21.9 µM [cytotoxic, single point]"
CN1CCc2cccc3c2[C@H]1Cc1ccc(O)c(O)c1-3,,"inconclusive: 21.9 µM [cytotoxic, partial curve]"

# Assay: qHTS of pediatric cancer cell lines to identify multiple opportunities for drug repurposing: Primary screen for Rh18 cells (AID 1347102); further: nearly all actives have a fitted effect of over 65% in size
# Details: Rh18 rhabdomyosarcoma viability, CellTiter-Glo luminescence, 48 h; series mostly up to 46 µM; activity change, negative = cytotoxic: at the top concentration
# Method in brief: as §2
row,Compound,Potency
1,CCN(CC)CCCCNc1ncc2c(n1)N(C)C(=O)N(c1c(Cl)c(OC)cc(OC)c1Cl)C2,active: 11.8 µM
2,CCN(CC)CCOc1ccc2c(c1)C(=O)c1cc(OCCN(CC)CC)ccc1-2,"inconclusive: 33.5 µM [cytotoxic, single point]"
3,CN1CCc2cccc3c2[C@H]1Cc1ccc(O)c(O)c1-3,"inconclusive: 16.8 µM [cytotoxic, partial curve]"

# Assay: qHTS of pediatric cancer cell lines to identify multiple opportunities for drug repurposing: Primary screen for OHS-50 cells (AID 1347103); further: nearly all actives have a fitted effect of over 40% in size
# Details: OHS-50 osteosarcoma viability, CellTiter-Glo luminescence, 48 h; series mostly up to 57.3 µM; activity change, negative = cytotoxic: at the top concentration
# Method in brief: as §2
row,Compound,Potency
1,CCN(CC)CCCCNc1ncc2c(n1)N(C)C(=O)N(c1c(Cl)c(OC)cc(OC)c1Cl)C2,active: 19.3 µM
2,CCN(CC)CCOc1ccc2c(c1)C(=O)c1cc(OCCN(CC)CC)ccc1-2,"inconclusive: 38.9 µM [cytotoxic, single point]"
3,CN1CCc2cccc3c2[C@H]1Cc1ccc(O)c(O)c1-3,"inconclusive: 24.6 µM [cytotoxic, single point]"
